According to PubChem BioAssay AID686978 (National Center for Advancing Translational Sciences (NCATS), 2013):
The whole screen tested about 420,000 compounds, of which about 64,000 (15%) were called active. Inconclusive means that the source gave no clear call. Such entries were picked first, then a sample of the others. Calls follow the shape of the dose curve; as a rule, active = well fitted inhibition curve with a large enough effect; inconclusive = small, poorly fitted or top-dose-only effect; inactive = flat fitted curve, though single readings scatter. Potencies of inconclusive entries are left out as doubtful fits.

Test: qHTS for Inhibitors of human tyrosyl-DNA phosphodiesterase 1 (TDP1): qHTS in cells in absence of CPT; also: nearly all actives have a fitted effect of over 55% in size
Conditions: DT40 Tdp1-/- hTDP1 cells, no CPT, ATP luminescence, 48 h; series mostly up to 46.2 µM
Procedure, shortened: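 Camptothecin absent (DMSO only). Human TDP1-complemented DT40 knockout cells, 400 cells/well, 37 °C for minimum 48 hr; ATP measured via CellTiter-Glo, 30 min dark incubation, luminescence.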
Potency is read from the fitted curve at half-maximal effect; tags tell the direction and shape of the fitted curve.

Row | Structure (SMILES) | Potency
1 | CCc1nc(SCC(=O)NC2CCCC2)c2oc3ccccc3c2n1 | inconclusive [inhibitor, single point]
2 | Cn1c(CCC(=O)OCC(=O)NCc2ccc3c(c2)OCO3)nc(=O)c2ccccc21 | inactive
3 | CC(C)N(C(C)C)S(=O)(=O)c1ccc(NC(=O)c2cnccn2)cc1 | inactive
4 | Cn1c(=O)c2c(ncn2CC(=O)OCC(=O)Nc2sccc2C(N)=O)n(C)c1=O | inactive
5 | CN1CCN(C(=O)c2cc3c(c(-c4cccc(Br)c4)n2)[C@H](CCO)N(S(=O)C(C)(C)C)C3)CC1 (some centres undefined) | inactive
6 | CCCCC[n+]1ccn(C2=C([O-])c3ccccc3C(=O)/C2=N\S(=O)(=O)c2ccc(Br)cc2)c1 | inconclusive [inhibitor, single point]
7 | COc1cccc(CN(C)CC(O)COC(c2ccccc2)c2ccccc2C)c1 (centres undefined) | active: 16.4 µM
8 | Cc1ccc(C(=O)CSc2nnc(COc3cc(C)cc(C)c3)o2)cc1 | inconclusive [inhibitor, single point]
9 | COc1ccccc1N1CCN(/N=C/c2c(C)nn(-c3ccccc3)c2C)CC1 | inconclusive [inhibitor, single point]
10 | CC(C)Oc1ccc(CNC(=O)Cn2c(=O)oc3ccccc32)cc1 | active: 16.4 µM
11 | CC(C)CCNC(=O)CSc1c2c(nc3ccc(Cl)cc13)CCCC2 | inconclusive [inhibitor, single point]
12 | O=C(/C=C\c1ccco1)Nc1nc(-c2ccc3ccccc3c2)cs1 | inconclusive [inhibitor, single point]
13 | COc1ccc(C2(c3ccc(OC)cc3)NC(=O)N(CC(=O)Nc3cc(C)on3)C2=O)cc1 | active: 16.4 µM
14 | CC(Cc1nnc(N)s1)c1ccccc1 (centres undefined) | inactive
15 | COc1ccc(C(=O)C2CCCN(C(=O)c3cccc(N(C)C)c3)C2)cc1OC (centres undefined) | inconclusive [inhibitor, partial curve]
16 | Cc1ccn2c(=O)nc(SCC(=O)N3N=C(c4cccs4)CC3c3ccc(F)cc3)nc2c1 (centres undefined) | active: 18.4 µM
17 | O=c1[nH]c(Nc2nc3ccccc3o2)nc2c1CCCC2 | active: 4.11 µM
18 | CC1(C)Oc2ccc3ccc(=O)oc3c2/C(=C/NNC(N)=O)C1=O | inconclusive [inhibitor, single point]
19 | O=S1(=O)CC(c2ccccc2)=NN=C(c2ccccc2)C1 | inconclusive [inhibitor, single point]
20 | CCN(CCCN(C)C)c1ccc(/C=C/c2ccnc3ccccc23)cc1 | active: 15.8 µM
21 | CCOC(=O)C1=C(CN2CCN(CC)CC2)NC(=O)NC1c1ccc(Cl)cc1 (centres undefined) | active: 23.1 µM
22 | CC(=O)Nc1ccccc1-c1nc2ccc(C(=O)N3CCN(c4cccc(C)c4)C(C)C3)cc2[nH]c1=O (centres undefined) | inconclusive [inhibitor, single point]

Row | Structure (SMILES) | Potency
23 | Cc1cc(C(=O)NCc2ccccc2C)c2c(C)nn(-c3cccc(F)c3)c2n1 | inconclusive [inhibitor, partial curve, poor fit]
24 | COc1ccc(CNc2ccnc(-c3ccc4c(c3)OCO4)n2)c(OC)c1 | inconclusive [inhibitor, single point]
25 | COc1ccccc1OCCn1cc(/C=C(\C#N)C(=O)NCc2ccco2)c2ccccc21 | inactive
26 | CC(C)C[C@@H](CN1CCC[C@H]1CN1C(=O)C(=O)NC[C@@H]1Cc1ccccc1)N1C[C@H](Cc2ccccc2)N(CCc2ccccc2)C(=O)C1=O | inconclusive [inhibitor, single point]
27 | O=C(c1cccs1)N1CCN(C(=O)N2CCOCC2)CC1 | inactive
28 | COc1ccc2c(c1)CCc1cnc(-n3ncc(C(=O)NCCCc4ccncc4)c3C)nc1-2 | active: 18.4 µM
29 | O=[N+]([O-])c1cncc([N+](=O)[O-])c1Nc1cccc(O)c1 | active: 4.11 µM
30 | COc1ccc(CC(=O)Nc2ccc(C)c(S(=O)(=O)N3CCCCCC3)c2)cc1 | inconclusive [inhibitor, single point]
31 | COC(=O)[C@@H]1N2C(=O)[C@@H](NC(=O)C(C)Oc3ccccc3)[C@H]2SC1(C)C (some centres undefined) | inconclusive [inhibitor, single point]
32 | Cc1cccc2sc(N(CCN(C)C)C(=O)C3CCN(S(=O)(=O)c4cccs4)CC3)nc12 | active: 18.4 µM
33 | Cc1ccc(C(=O)N2CCN(c3ccc(NC(=O)c4cc(C)cc(C)c4)cc3)CC2)cc1 | inconclusive [inhibitor, full curve, poor fit]
34 | COc1cc(Cl)ccc1OC1(C)CCN(Cc2ccc(SC)cc2)C1 (centres undefined) | active: 18.4 µM
35 | O=C(CN1CCN(Cc2ccccc2)CC1)Nc1ccc2c(c1)CCC2 | inconclusive [inhibitor, single point]
36 | COC(=O)[C@H](Cc1ccccc1)NC(=O)NCCc1ccc(F)cc1 | inactive
37 | CCCn1c(=O)sc2cc(NC(=O)c3ccccc3OCC)ccc21 | inconclusive [inhibitor, partial curve]
38 | CSc1ccc(/C=C/C(=O)OCC(=O)NC(C)C)cc1 | inconclusive [inhibitor, partial curve, poor fit]
39 | COC(=O)c1c(-c2ccccc2)csc1NC1=NS(=O)(=O)c2ccccc21 | inconclusive [inhibitor, full curve]
40 | CCCC(=O)N(Cc1cc(=O)[nH]c2ccccc12)c1ccc(C)cc1 | inconclusive [inhibitor, single point]
41 | COCCCN=C1NN=C(c2cc(C)n(-c3ccccc3F)c2C)CS1 | active: 8.2 µM
42 | CCCCCCn1c(CNC(=O)c2ccccc2)nc2ccccc21 | inconclusive [inhibitor, single point]
43 | Cc1ccc(S(=O)(=O)N2CCC[C@H]2C(=O)OCC(=O)Nc2ccc3c(c2)OCO3)cc1 | inactive
44 | NC(COCc1ccccc1)c1csc(Nc2cc(NCCCO)ncn2)n1 (centres undefined) | inconclusive [inhibitor, single point]
